# Experimental data published in the supplement of paper PMC11417369.
# ± gives the standard deviation of the averaged measurements. The list shows a part of the results.
# Tested on: PfAP2-LT AP2 domain (GST-tagged)
# Test: gcPBM binding intensity (ln(normalized median fluorescence intensity)); higher = stronger DNA binding
# Procedure, shortened: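 Binding intensity is the highest Masliner-normalised natural-log median intensity over replicate spots in either probe orientation. To obtain it, GST-tagged P. falciparum DNA-binding domains made in E. coli were incubated for 1 h on an Agilent 4 × 180k array of primer-extended double-stranded 36-bp intergenic genomic probes plus negative controls. Detection used Alexa488 anti-GST antibody with scanning at 488 nm.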
row,Sequence,gcPBM binding intensity (ln)
1,AATATATGGTTCCTTGATATTAAATTCAATTTAATG [CACACA_negctrl_site71],8.53 ± 0.4
2,TGTGTATATGTGCAAAGTACAAAAAAGAAATTATTT [XGTACX_site7569],8.88 ± 0.47
3,GAAAAAAAATCCAAGATGCACTATTATTACAAAAAT [GTGCAC_site9516],8.71 ± 0.51
4,ATGTAATATATGCGGAAATATATTCACAAGACGTCA [CACACA_negctrl_site373],8.97 ± 0.4
5,GTCAAAAGTTTTTAAGGTACACTTATTTTATTATAA [XGTACX_site7004],8.62 ± 0.45
6,CACTAAACATATACACGTACATGCAACGGATTTTTT [XGTACX_site461],8.98 ± 0.35
7,ACCTTTATTGTATGAACACACATAAGCTGATACATC [CACACA_site4028],9.21 ± 0.33
8,TGGATGTTAATATAGTGTACATTTATAAGTCAGTAT [XGTACX_site2949],8.86 ± 0.42
9,GTGGAAAAAAATAATTGTACACAATAATAAATATAT [XGTACX_site2414],8.87 ± 0.45
10,TGTATATATCAATGTACACACATGCGTATGTTCGTT [CACACA_site7654],9.41 ± 0.38
11,TATAAAAAAAATTGCACACATATTATACAGGACGAC [CACACA_site701],9.29 ± 0.38
12,AAAATATATATAACTTGTACATATACATACGTATAT [XGTACX_site4570],8.88 ± 0.4
13,ATAATATATTTATGTTGTACAAGGAAAATTTTGAAA [XGTACX_site3472],8.76 ± 0.42
14,GAAATGGAAAAATATACATGCGCATATAAATTAATA [TGCATGCA_site834],8.98 ± 0.44
15,TTTTTGATGAAATATTATTTTCCTGACTTGGATTAA [CACACA_negctrl_site148],8.44 ± 0.48
16,AACCATAAATAATTATGTACTAAAAAAAATATATAT [XGTACX_site3415],8.64 ± 0.45
17,TGGAGGATAGTTCACAGTACCCAGAAACTCTACGGA [XGTACX_site2560],8.73 ± 0.55
18,TTATTTATGATATATACACACTAACATTATTTATCC [CACACA_site6720],8.98 ± 0.51
19,TCTTATATATGCTTAAATATATTATATTTATTTGAA [CACACA_negctrl_site1757],8.46 ± 0.43
20,ATCATATGTATGCATACACACAAAAAATTATATATA [CACACA_site398],9.14 ± 0.34
21,TATAATGATATAACAACACACATGTATGTATTATTA [CACACA_site230],9.04 ± 0.35
22,TTTTTAATATATAAAGATAATAATAAATAAAATTCA [CACACA_negctrl_site657],8.14 ± 0.46
23,TATAGATACCTATACACACACACACGGACATATATA [CACACA_site7585],10 ± 0.25
24,AAAGAAATGAAATATACACACATACCTATATACATA [CACACA_site7817],9.24 ± 0.41
